Measurements reported in PubChem BioAssay AID445 (National Center for Advancing Translational Sciences (NCATS), 2006).
Screen size: about 110,000 compounds; about 40 (0.04%) were called active. This list was built around the results that the source calls inconclusive (neither active nor inactive); the mix of calls is not that of the screen. Calls come from the whole dose curve; as a rule, active = well fitted curve in the direction sought with a large enough effect in the signal ratio (not every such curve was filed as active); inconclusive = small, poorly fitted or top-dose-only effect, or a change in a side signal; inactive = flat fitted curve, though single readings scatter; the % refers to the signal ratio. Potencies beside an inconclusive call are fits to weak or partial responses and may not hold up.

Assay: IkB Signaling;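 for IkBa stabilization activation: 0% = basal untreated cells and 100% = reference inhibitor full response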
Conditions: ABC-DLBCL IkBa-CBG/CBR dual luciferase ratio (green luciferase fused to IkBa over red control in OCI-Ly3 lymphoma cells), 4 h; IkBa stabilization activation: at 57.1 µM (top of the series), scaled: untreated 0%, proteasome inhibitor 100% unless noted
Procedure, shortened: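 In this assay, an IκBα–CBG68 fusion accumulates when IKK-driven degradation is blocked; native CBR normalizes for cell number. OCI-Ly3 cells were treated 4 h with compound and doxycycline, then green and red light read after Chroma-Glo addition.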
Potency is the fitted concentration of half-maximal effect.

Compound | Potency | IkBa stabilization activation
Cc1ccccc1CCNC(=O)c1cc2ccccn2n1 | inconclusive: 25.1 µM [signal inhibitor] | 
Cc1ccc(C)c(-n2c(SCC(=O)Nc3nonc3C)nnc2-c2ccoc2C)c1 |  | inactive
COc1ccc(-c2onc(C)c2C)cc1S(=O)(=O)NC1CCCCC1 |  | inconclusive: 6.9% [signal inhibitor]
O=C(Nc1cccc(C(=O)OCc2cc(=O)n3nc(C4CC4)sc3n2)c1)c1ccc(F)cc1 |  | inconclusive: 6.53% [signal inhibitor]
CCOc1ccc(N(CC(=O)Nc2cccc(OC)c2)S(=O)(=O)c2c(C)noc2C)cc1 |  | inconclusive: 7.97% [signal inhibitor]
CCc1ccc(NC(=O)CN2C(=O)C(=O)c3ccccc32)cc1 |  | inconclusive: 0.947% [signal inhibitor]
COc1ccc(S(=O)(=O)Nc2ccc(O)c(Sc3nc4ccccc4s3)c2)cc1 |  | inconclusive: -6% [signal inhibitor]
CCCC(=O)NC1CC(=O)N(c2ccc3c(c2)OCCO3)C1 (stereo not drawn) |  | inactive
CCCc1[nH]n(-c2nc3ccccc3s2)c(=O)c1C=NCC1CCCO1 (stereo not drawn) |  | inconclusive: 7.65% [signal inhibitor]
Cn1c(CNc2ccc(Cl)cc2)nc2ccccc21 |  | inconclusive: 1.17% [signal inhibitor]
Cc1ccc(C(=O)Nc2ncc(Cc3ccccc3)s2)o1 |  | inactive
CC1(C)CC(=O)c2cnn(-c3nc4ccccc4[nH]3)c2C1 |  | inactive
O=C1c2ccccc2C(=O)N1C[C@]1(C(=O)O)NCCS1(=O)=O |  | inactive: 0.82% [at 11.4 µM, scaled: untreated 0%, proteasome inhibitor 100%]
O=c1cc(-c2cccc(O)c2O)oc2ccccc12 |  | inactive: 0.225% [at 11.4 µM, scaled: untreated 0%, proteasome inhibitor 100%]
COc1cccc2[nH]c3c(N4CCN(Cc5ccc6c(c5)OCO6)CC4)ncnc3c12 |  | inconclusive: 0.334% [signal inhibitor]
Cc1ccc(-n2nc(C)c3c(C)c(CCC(=O)NCc4cccc(Cl)c4)c(C)nc32)cc1C |  | inconclusive: -0.0589% [signal inhibitor]
Cc1cccc(C(=O)Nc2cc3c(cc2N2CCCCC2)n(C)c(=O)n3C)c1 |  | inconclusive: 12.4% [signal inhibitor]

Compound | Potency | IkBa stabilization activation
O=C(CSc1c2c(nc3ccc(Cl)cc13)CCCC2)N1CCCCC1 | inconclusive: 31.6 µM [signal inhibitor] | 
COc1ccc(C(=O)Oc2c(Sc3ccc(C)cc3)c(C)nn2C(C)(C)C)c(OC)c1 |  | inconclusive: 3.79% [signal inhibitor]
O=C(NCc1cccnc1)c1ccc(COc2ccc3c(c2)CCC3)o1 |  | inconclusive: 7.5% [signal inhibitor]
C=Cc1ccc(Cn2c(C(=O)O)c(CNCc3cc(OC)ccc3OC)c3ccc(C)cc32)cc1 |  | inconclusive: -3.13% [signal inhibitor]
CCC12CN3CC(C)(CN(C1)C3c1c(C)[nH]c3ccccc13)C2=O (stereo not drawn) |  | inconclusive: 2.27% [signal inhibitor]
CCOC(=O)c1cc2c(ccn2C)n1CC(=O)N1CCC(Cc2ccccc2)CC1 |  | inconclusive: 9.27% [signal inhibitor]
COC(=O)C1=C(c2ccccc2)c2ccccc2S(=O)(=O)N1CC(=O)Nc1cc(C)ccc1C |  | inconclusive: 4.68% [signal inhibitor]
CCOC(=O)Cn1nc(N2CCN(c3ccc(F)cc3)CC2)ccc1=O |  | inactive
CCOC(=O)c1cccc(NC(=O)CCc2c(C)nc3c4cccnc4nn3c2C)c1 |  | inconclusive: 2.05% [signal inhibitor]
COc1ccccc1CN(Cc1cc2c(C)ccc(C)c2[nH]c1=O)Cc1nnnn1Cc1ccco1 |  | inconclusive: 2.66% [signal inhibitor]
CSc1ccc(Nc2nn(-c3ccc(OC(F)(F)F)cc3)nc2C(C)=O)cc1 |  | inconclusive: 0.543% [signal inhibitor]
Cc1cccc(-n2ncc3c(NCc4ccc5c(c4)OCO5)ncnc32)c1 |  | inactive
Cc1ccc2c(c1)N(CC(=O)NCc1cccc(Cl)c1)C(=O)c1cccnc1O2 |  | inconclusive: 2.68% [signal inhibitor]
COc1ccccc1Cn1c(CNS(=O)(=O)c2c(C)cc(C)cc2C)nc2cccnc21 |  | inconclusive: 1.83% [signal inhibitor]
Cc1cc(Nc2cccc(Cl)c2C)n2nc(Cc3ccccc3)nc2n1 |  | inconclusive: 0.207% [signal inhibitor]
Cc1nn(-c2ccccc2)c(Cl)c1C(=O)N1CCN(c2ncnc3c2cnn3-c2ccccc2)CC1 |  | inconclusive: -0.465% [signal inhibitor]
